Results from PubChem BioAssay AID1030 (National Center for Advancing Translational Sciences (NCATS), 2008).
Out of some 220,000 compounds screened, about 16,000 (7.3%) were called active. Inconclusive results, whose numbers are uncertain, are shown with a selection of clear calls. Calls follow the shape of the dose curve; as a rule, active = well fitted inhibition curve with a large enough effect (not every such curve was filed as active); inconclusive = small, poorly fitted or top-dose-only effect, or another doubt; inactive = no such curve, though single readings can be large or run the other way. No potency is given beside an inconclusive call; the fits are too rough.
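For activity, negative = inhibition in this document: plate controls were no enzyme wells and a reference inhibitor.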
Potency is read from the fitted curve at half-maximal effect; tags tell the direction and shape of the fitted curve.

What follows are molecules tested against Aldehyde dehydrogenase 1A1 (Homo sapiens) (UniProt P00352) (assay: qHTS Assay for Inhibitors of Aldehyde Dehydrogenase 1 (ALDH1A1)). Conditions: Purified ALDH1A1, NADH fluorescence, propionaldehyde substrate; series mostly up to 75.3 µM.
Chain of UniProt P00352 (P00352 whole entry, looked up): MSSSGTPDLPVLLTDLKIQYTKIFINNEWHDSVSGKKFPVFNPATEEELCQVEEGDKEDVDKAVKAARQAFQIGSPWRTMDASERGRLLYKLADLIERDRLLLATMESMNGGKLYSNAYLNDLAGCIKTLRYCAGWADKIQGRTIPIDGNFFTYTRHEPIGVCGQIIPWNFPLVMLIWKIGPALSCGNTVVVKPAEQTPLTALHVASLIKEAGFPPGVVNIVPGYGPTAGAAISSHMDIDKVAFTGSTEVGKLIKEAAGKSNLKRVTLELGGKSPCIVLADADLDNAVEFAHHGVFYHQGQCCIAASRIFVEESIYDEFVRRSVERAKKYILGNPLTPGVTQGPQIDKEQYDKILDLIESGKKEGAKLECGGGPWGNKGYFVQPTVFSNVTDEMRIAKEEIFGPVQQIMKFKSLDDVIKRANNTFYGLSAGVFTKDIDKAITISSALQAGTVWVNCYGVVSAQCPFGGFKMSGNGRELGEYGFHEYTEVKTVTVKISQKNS
`O=C1c2ccccc2C(=O)c2c1ncn2-c1ccccc1` was tested, and the Potency was inconclusive [inhibitor, single point].
With `CCn1c(C)cc(/C=C2/NC(=O)N(c3ccccc3)C2=O)c1C` the Potency was active: 12.6 µM.
For `CCc1ccc(C(C(=O)NC2CCCC2)N(C(=O)/C=C/C(=O)Nc2cc(C)on2)c2ccccc2C)cc1` (centres undefined), the Potency was “inactive”.
In the case of `N=C(N)c1ccc2cc(OC(=O)c3ccc(N=C(N)N)cc3)ccc2c1`, the Potency is reported as active: 22.4 µM.
In the case of `Cc1ccc(-c2noc(CCC(=O)NC3CCCc4ccccc43)n2)cc1` (centres undefined), the Potency is reported as inconclusive [inhibitor, full curve].
For `COc1ccc2cc(C3CC(c4cccs4)=NN3S(C)(=O)=O)c(Cl)nc2c1` (centres undefined), the Potency was inconclusive [inhibitor, single point].
With `N#CC1=C(N)N(c2ccccc2)C(=O)C1` the Potency was inconclusive [inhibitor, single point].
With `CCCNC(=O)CCc1c(C)nc2nc(-c3cc(OC)cc(OC)c3)nn2c1C` the Potency was “inactive”.
With `COC(=O)c1ccccc1OCC(=O)NC1CCCCC1` the Potency was inconclusive [inhibitor, single point].
`CCOc1cc(NC(=S)NCc2ccco2)c(OCC)cc1NC(=O)C1CC1` was tested, and the Potency was “inactive”.
In the case of `Cc1cccc(CNc2ccnc(-c3cccc(C#N)c3)n2)c1`, the Potency is reported as inconclusive [inhibitor, partial curve].
With `ClC(Cl)(c1nnnn1-c1ccccc1)c1nnnn1-c1ccccc1` the Potency was active: 1.12 µM.
In the case of `CCOc1ccc(-c2cc(CCCC(=O)N3CCN(c4ccc(OC)cc4)CC3)no2)cc1`, the Potency is reported as active: 20 µM.
In the case of `CC1CCCCN1S(=O)(=O)c1ccc(N(C(=O)c2cnccn2)C(C(=O)NC2CCCC2)c2cccs2)cc1` (centres undefined), the Potency is reported as active: 3.98 µM.
With `O=C(CN(CC1CCCO1)C(=O)CNS(=O)(=O)c1ccc(F)cc1)NCc1ccco1` (centres undefined) the Potency was “inactive”.
With `Cc1onc(-c2ccccc2Cl)c1C(=O)NCc1cccs1` the Potency was inconclusive [inhibitor, single point].
With `CSc1ccc(C2Nc3ccccc3-c3cc(C)nn32)cc1` (centres undefined) the Potency was inconclusive [inhibitor, single point].
For `O=c1ccc(C(F)(F)F)cn1Cc1cc(=O)n2cc(Br)ccc2n1`, the Potency was “inactive”.
In the case of `CCOC(=O)C1CCN(C(=O)COC(=O)COc2ccccc2OC)CC1`, the Potency is reported as inconclusive [inhibitor, partial curve].
For `CCNc1ncc2nc(-c3cn(C)c4ccccc34)c(=O)n(-c3ccc(OC)cc3)c2n1`, the Potency was inconclusive [inhibitor, single point].
For `Cn1cnnc1SCC(=O)N1CCN(C(=O)c2ccco2)CC1`, the Potency was inconclusive [inhibitor, single point].
For `Cc1ccc(S(=O)(=O)NC(C)CCc2ccccc2)cc1` (centres undefined), the Potency was active: 25.1 µM.
With `COc1ccc(-n2nc(C(=O)Nc3nc4ccc(OC)cc4s3)c3ccccc3c2=O)c(OC)c1` the Potency was active: 20 µM.
In the case of `Cc1ccc(S(=O)(=O)N/N=C2/CC(c3ccccc3)Oc3ccccc32)cc1[N+](=O)[O-]` (centres undefined), the Potency is reported as active: 7.08 µM.
With `COc1ccc(NC(=O)CSc2nc(O)c(Cc3ccccc3)c(=O)[nH]2)cc1` the Potency was inconclusive [inhibitor, single point].
`CCOC(=O)/C(C#N)=C/c1cn(CCOc2ccc(OC)cc2)c2ccccc12` was tested, and the Potency was inconclusive [inhibitor, single point].
`CN(C)CCNc1nc2c(c(=O)[nH]c(=O)n2C)n1CC(O)COc1ccc(Cl)cc1Cl` (centres undefined) was tested, and the Potency was inconclusive [inhibitor, single point].
With `CCOc1ccc(S(=O)(=O)N2CCN(C)CC2)c(C)c1C` the Potency was inconclusive [inhibitor, single point].
In the case of `O=C(CSCc1ccco1)NC1CCCC1`, the Potency is reported as inconclusive [inhibitor, single point].
`COc1ccc(C2Nc3ccccc3C(=O)N2c2ccccc2)cc1CN1CCOCC1` (centres undefined) was tested, and the Potency was inconclusive [inhibitor, single point].
`O=C(O)/C=C/C(=O)N(Cc1ccc2c(c1)OCO2)C1CC(=O)N(CCc2ccccc2)C1=O` (centres undefined) was tested, and the Potency was “inactive”.
`CCN(CC)CC(=O)N1N=C(c2cccs2)CC1c1ccco1` (centres undefined) was tested, and the Potency was inconclusive [inhibitor, single point].
`COc1ccccc1CC(=O)Nc1ccc(-c2nnc(-c3ccco3)o2)cc1` was tested, and the Potency was inconclusive [inhibitor, partial curve].
`CC(C)C(c1nnnn1CCc1ccccc1)N1CCSCC1` (centres undefined) was tested, and the Potency was inconclusive [inhibitor, single point].
With `Cc1ccc(SCCNC(=O)C(CO)(CO)CO)cc1` the Potency was inconclusive [inhibitor, single point].
With `CC(=O)c1cnc2c(C(=O)O)cnn2c1C` the Potency was inconclusive [inhibitor, single point].
`Cc1nc(N2CCN(C)CC2)[nH]c(=O)c1Cc1cccc2ccccc12` was tested, and the Potency was inconclusive [inhibitor, partial curve].
`CCOc1ccc(N=C2C(=O)N(CN3CCOCC3)c3ccccc32)cc1` was tested, and the Potency was inconclusive [inhibitor, single point].
For `O=C1CCCC=C1[C@H](CCc1ccccc1)OC(=O)c1ccc(Br)cc1`, the activity, negative = inhibition was inactive: 13.4% [at 13.5 µM].
`N#Cc1cccc(NC(=O)N2CC[C@@]3(CCCN(S(=O)(=O)c4ccccc4)C3)C2)c1` was tested, and the Potency was “inactive”.
In the case of `Cc1cccc(NC(=O)c2cnc3sccn3c2=O)c1`, the Potency is reported as inconclusive [inhibitor, single point].
For `COc1ccc(CN(CC(=O)NC2CCCC2)C(=O)c2ccc(-c3ccccc3)[nH]2)cc1`, the Potency was inconclusive [inhibitor, single point].
`C(=N/Nc1nc(-c2ccccc2)cc(-c2ccccc2)n1)/c1cccnc1` was tested, and the Potency was inconclusive [inhibitor, full curve].
With `CN1CCN(c2ncnc3ccc(-c4ccccc4Cl)cc23)CC1` the Potency was inconclusive [inhibitor, single point].
For `CCC(C)NC(=O)Nc1ccc(C)cc1C` (centres undefined), the Potency was “inactive”.
With `Cc1nc(C)c(C(=O)Nc2cccc(Cl)c2)o1` the Potency was inconclusive [inhibitor, single point].
In the case of `OC(CN1CCN(Cc2ccccc2)CC1)c1ccccc1` (centres undefined), the Potency is reported as “inactive”.
For `COc1cc(CCC(=O)Nc2nnc(-c3cccnc3)s2)cc(OC)c1OC`, the Potency was inconclusive [inhibitor, single point].
In the case of `Cc1oc(-c2nc3ccccc3n2C)cc1C(=O)c1ccccc1`, the Potency is reported as inconclusive [inhibitor, single point].
In the case of `COC(=O)C1C(=O)CC(C)(O)C(C(=O)OC)C1/C=C/c1ccccc1` (centres undefined), the Potency is reported as inconclusive [inhibitor, partial curve].
`CCN1CCN(c2cc(C)c3cc(NC(=O)Cc4ccccc4OC)ccc3n2)CC1` was tested, and the Potency was inconclusive [inhibitor, single point].
`COc1ccc(C)cc1NCc1cccc(OC)c1OC` was tested, and the Potency was inconclusive [inhibitor, single point].
In the case of `O=C(c1cc(=O)c2ccccc2o1)N1CCCc2ccccc21`, the Potency is reported as inconclusive [inhibitor, single point].
With `CCOC(=O)N1CCN(C(=O)C2CCN(S(=O)(=O)N3CCCC3)CC2)CC1` the Potency was inconclusive [inhibitor, single point].
With `COc1ccc(CCC(=O)OCC(=O)c2cccc(OC)c2)cc1` the Potency was inconclusive [inhibitor, single point].
For `CCN(CC)C(=O)CSc1nc2nc(C)cc(C)c2c(=O)[nH]1`, the Potency was inconclusive [inhibitor, single point].
With `Cc1ccc(S(=O)(=O)N(NC2=NS(=O)(=O)c3ccccc32)C(=O)c2ccccc2)cc1` the Potency was inconclusive [inhibitor, single point].
With `CC(=O)c1c(C)[nH]c(C(=O)Nc2cccc(S(=O)(=O)N(C)c3ccccc3)c2)c1C` the Potency was “inactive”.
With `O=C(NC(=S)N(Cc1ccccc1)c1ccccn1)C1CC1` the Potency was inconclusive [inhibitor, partial curve].
With `CN1CCN(c2ccc(C(=O)c3cn(-c4ccc(F)c(Cl)c4)nn3)cc2)CC1` the Potency was inconclusive [inhibitor, single point].
With `c1cc2c(cc1-c1[nH]ncc1CN1CC3C[C@@H]4CC1C[C@H](C3)C4)OCO2` the Potency was inconclusive [inhibitor, partial curve].
With `Cc1ccc(NC(=S)Nc2ccc(S(=O)(=O)N3CCOCC3)cc2)cc1S(=O)(=O)N1CCOCC1` the Potency was inconclusive [inhibitor, single point].
For `CCOc1ccc(OCCOCCn2ccnc2)cc1`, the Potency was inconclusive [inhibitor, single point].
For `Clc1ccccc1-c1nc(NCc2cccnc2)c2ccccc2n1`, the Potency was inconclusive [inhibitor, single point].
For `O=C(O)CSc1c(-c2cccs2)[nH]c2ccccc12`, the Potency was “inactive”.
With `CCOc1cccc(C(=O)Nc2cccc(-c3nnc(-c4ccccc4)o3)c2)c1` the Potency was inconclusive [inhibitor, single point].
With `CC(C)n1c(O)c(N=Nc2ccc(Cl)nn2)c2ccccc21` the Potency was inconclusive [inhibitor, partial curve].
For `COc1ccc(CCNCC(=O)Nc2ccc(C)c(S(=O)(=O)N(C)C)c2)cc1OC`, the Potency was active: 15.8 µM.
`COc1cc(/C=C2\SC(=S)NC2=O)ccc1OS(=O)(=O)c1ccccc1` was tested, and the Potency was active: 6.31 µM.
